Out of some 310,000 compounds screened, about 2,200 (0.71%) showed an effect of 50% or more. Effects have a minus sign here. This is one part of the list.
target: human ether-à-go-go-related gene (hERG) potassium channel (human, UniProt Q12809); assay: primary screen, population patch clamp on CHO cells stably expressing hERG
Sequence (Q12809 whole entry, looked up): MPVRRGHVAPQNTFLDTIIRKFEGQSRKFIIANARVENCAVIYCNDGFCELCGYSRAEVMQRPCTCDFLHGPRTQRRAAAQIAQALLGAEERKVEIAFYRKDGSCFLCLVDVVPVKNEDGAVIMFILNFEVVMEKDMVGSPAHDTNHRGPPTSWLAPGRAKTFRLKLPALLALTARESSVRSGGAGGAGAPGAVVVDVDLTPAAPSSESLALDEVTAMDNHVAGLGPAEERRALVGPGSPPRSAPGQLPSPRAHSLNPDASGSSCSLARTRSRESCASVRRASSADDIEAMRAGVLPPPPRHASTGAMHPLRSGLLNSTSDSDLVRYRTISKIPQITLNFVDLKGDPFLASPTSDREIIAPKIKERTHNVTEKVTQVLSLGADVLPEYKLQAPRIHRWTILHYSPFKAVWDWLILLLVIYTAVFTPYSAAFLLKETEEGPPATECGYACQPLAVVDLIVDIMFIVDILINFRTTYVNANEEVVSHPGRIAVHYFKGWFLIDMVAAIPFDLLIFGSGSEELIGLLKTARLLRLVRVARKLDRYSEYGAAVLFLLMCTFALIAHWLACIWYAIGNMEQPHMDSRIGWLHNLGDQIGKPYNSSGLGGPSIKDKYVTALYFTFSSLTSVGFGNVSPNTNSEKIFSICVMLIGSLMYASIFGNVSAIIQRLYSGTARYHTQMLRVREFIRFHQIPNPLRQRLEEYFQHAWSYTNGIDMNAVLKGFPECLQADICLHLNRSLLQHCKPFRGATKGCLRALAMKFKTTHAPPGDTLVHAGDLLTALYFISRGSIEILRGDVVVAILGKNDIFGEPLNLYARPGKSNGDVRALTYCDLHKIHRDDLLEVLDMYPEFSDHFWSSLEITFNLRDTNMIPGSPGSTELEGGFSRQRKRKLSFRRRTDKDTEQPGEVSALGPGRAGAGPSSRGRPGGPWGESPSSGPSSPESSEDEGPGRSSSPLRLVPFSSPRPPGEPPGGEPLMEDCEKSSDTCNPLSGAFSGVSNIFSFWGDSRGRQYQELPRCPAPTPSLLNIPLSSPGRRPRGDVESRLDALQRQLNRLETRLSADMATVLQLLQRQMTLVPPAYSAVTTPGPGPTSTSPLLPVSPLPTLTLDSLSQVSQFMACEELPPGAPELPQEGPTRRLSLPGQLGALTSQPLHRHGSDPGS

Compound | hERG current change (%, negative = inhibition) at 1uM [%]
COc1ccccc1Nc1nc(-c2ccccc2)nc2ccccc12 | 18.4
O=C(c1ccccc1)N1CCOC12CCN(c1ncc(C(F)(F)F)cc1Cl)CC2 | 15.1
Cc1ccc(OCCCCn2c(CO)nc3ccccc32)cc1 | 0.302
CN=C1S/C(=C\c2cccc(Cl)c2Cl)C(=O)N1C | 2.62
O=S(=O)(Nc1ccccc1Cl)c1ccc(-c2ccccn2)s1 | 22.5
COc1ccc(S(=O)(=O)N(CCCN2CCOCC2)Cc2ccc(OC)c(OC)c2)cc1 | -3.68
O=C1CCCC2=C1C(c1ccc(O)cc1)c1c(ccc3ccccc13)N2 (stereo not shown) | 1.35
C[N+]12CCC(CC1)C(C(O)(c1cccc(Cl)c1)c1cccc(Cl)c1)C2.[I-] (stereo not shown) | 8.96
COc1cc(/C=N/N=C(\N)c2nonc2N)ccc1O | 11.8
C=CCn1c(SCCCCCC)nc(O)cc1=O | -0.713
CC(C)(C)Nc1nc(NCc2cccnc2)nc(N2CCOCC2)n1 | 7.88
O=[N+]([O-])c1cc(C(F)(F)F)ccc1NCCc1ccccn1 | 3.84
O=c1c(Cc2ccc(Cl)cc2)c(O)ccn1Cc1cccc(Cl)c1 | 12
CC1CCc2sc(C(=O)NCC(C)(C)N3CCOCC3)cc2C1 (stereo not shown) | 2.41
CCOCCCN1C(=O)C2C(C(=O)Nc3ccc(OCC)cc3)C3C=CC2(O3)C1C(=O)NC1CCCCC1 (stereo not shown) | -2.66
Cc1nnsc1S(=O)c1ccc(F)cc1 (stereo not shown) | 10.8
O=C(Cc1csc(NC(=O)c2ccccc2)n1)NO | 6.72
COc1ccc(NC(=S)N2CCC(N(C)CC3CCCO3)CC2)cc1 (stereo not shown) | 12.2
CCOC(=O)c1ccc(NC(=O)CCS(=O)(=O)c2ccc(Br)s2)cc1 | -1.71
CSc1ccccc1NC(=O)CN(C)CC(=O)NCC(=O)Nc1ccc(F)cc1 | 2.71
CC(C)NC(=S)N1CCN(C(c2ccccc2)c2ccccc2)CC1 | 1.13
Cc1ccc(NC(=S)N=Nc2c(O)n(C)c3ccc(S(=O)(=O)N4CCOCC4)cc23)cc1C | 14
O=C(NCCc1ccc(F)cc1)c1cc([N+](=O)[O-])ccc1N1CCOCC1 | -98.2
CC1CCCCN1C(=O)c1c([N+](=O)[O-])cnn1C (stereo not shown) | 5.13
N#C/C(=C(/O)CN1CCOCC1)c1nc2ccccc2s1 | 13.8
